Laboratory results: the BET-seq Pho4 binding data (Le et al. 2018)
This is one part of the list. The energies were worked out here from pooled read counts, against the library average; single values are noisy.

The sequences below were run against T1, Pho4 (S. cerevisiae) (UniProt P07270) (assay: relative binding free energy (BET-seq); higher = weaker binding). Settings: reference: library average.
T1 sequence: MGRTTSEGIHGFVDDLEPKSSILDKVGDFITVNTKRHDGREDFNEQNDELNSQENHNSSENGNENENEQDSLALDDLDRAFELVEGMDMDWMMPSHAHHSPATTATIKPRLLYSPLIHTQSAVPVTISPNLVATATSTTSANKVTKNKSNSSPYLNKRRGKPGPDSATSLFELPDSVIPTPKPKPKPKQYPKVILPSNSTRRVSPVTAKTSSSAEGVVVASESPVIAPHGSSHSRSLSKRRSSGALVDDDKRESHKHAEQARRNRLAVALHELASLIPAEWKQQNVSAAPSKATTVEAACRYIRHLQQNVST
In the case of TTTGTCACGTGGGTGA, the “relative binding free energy” value is reported as -0.06 kcal/mol.
For GAATCCACGTGTGGGG, the “relative binding free energy” value was 0.04 kcal/mol.
With TGTATCACGTGTGCTT the “relative binding free energy” value was 0.12 kcal/mol.
In the case of CAAGGCACGTGGTCGG, the “relative binding free energy” value is reported as -0.3 kcal/mol.
For GGCAGCACGTGGGCGG, the “relative binding free energy” value was -0.25 kcal/mol.
AATTCCACGTGTGGGT was tested, and the “relative binding free energy” value was 0.15 kcal/mol.
For GGTGGCACGTGCGAGG, the “relative binding free energy” value was 0.01 kcal/mol.
With AGATGCACGTGGGGGA the “relative binding free energy” value was -0.21 kcal/mol.
In the case of GTGGGCACGTGCGAAT, the “relative binding free energy” value is reported as -0.12 kcal/mol.
With TAAGTCACGTGTACGT the “relative binding free energy” value was 0.06 kcal/mol.
With TTTGACACGTGGTGTG the “relative binding free energy” value was -0.03 kcal/mol.
For GTTGGCACGTGGGTCA, the “relative binding free energy” value was -0.14 kcal/mol.
With ATTAGCACGTGATAGT the “relative binding free energy” value was 0.06 kcal/mol.
For TATTACACGTGTGATG, the “relative binding free energy” value was 0.2 kcal/mol.
For GCTTTCACGTGTGATG, the “relative binding free energy” value was 0.41 kcal/mol.
With TGTGTCACGTGGCTCG the “relative binding free energy” value was 0.06 kcal/mol.
With TCTTGCACGTGTCGTT the “relative binding free energy” value was 0.2 kcal/mol.
In the case of GGGGCCACGTGGGGCT, the “relative binding free energy” value is reported as -0.16 kcal/mol.
With AGGTACACGTGGTTAT the “relative binding free energy” value was 0.05 kcal/mol.
With GGGGCCACGTGGGCAG the “relative binding free energy” value was -0.32 kcal/mol.
For CGGATCACGTGGTTGG, the “relative binding free energy” value was 0.02 kcal/mol.
In the case of CTGATCACGTGGTATT, the “relative binding free energy” value is reported as 0.02 kcal/mol.
In the case of TACTTCACGTGTTTGG, the “relative binding free energy” value is reported as 0.3 kcal/mol.
In the case of CGGGCCACGTGTTTTG, the “relative binding free energy” value is reported as -0.05 kcal/mol.
With TTGCGCACGTGGACGT the “relative binding free energy” value was -0.09 kcal/mol.
For CGCGTCACGTGGTTTG, the “relative binding free energy” value was 0.07 kcal/mol.
GTAAGCACGTGGGGGC was tested, and the “relative binding free energy” value was -0.19 kcal/mol.
ATCGGCACGTGCTGGT was tested, and the “relative binding free energy” value was -0.12 kcal/mol.
For GGTCACACGTGTTTGG, the “relative binding free energy” value was 0.04 kcal/mol.
TGATTCACGTGAGGTA was tested, and the “relative binding free energy” value was 0.36 kcal/mol.
For GAAATCACGTGAGCGG, the “relative binding free energy” value was 0.57 kcal/mol.
With AATATCACGTGGGTGC the “relative binding free energy” value was -0.03 kcal/mol.
With GTTGACACGTGTGTGT the “relative binding free energy” value was 0.14 kcal/mol.
With TCTCGCACGTGTTGTG the “relative binding free energy” value was -0.14 kcal/mol.
With TTGAGCACGTGTATTA the “relative binding free energy” value was -0.15 kcal/mol.
For TTGTACACGTGTCGGT, the “relative binding free energy” value was 0.17 kcal/mol.
For AGATGCACGTGATTTT, the “relative binding free energy” value was 0.12 kcal/mol.
GTGGGCACGTGGTTAG was tested, and the “relative binding free energy” value was 0.02 kcal/mol.
In the case of TGTGCCACGTGGCGGT, the “relative binding free energy” value is reported as -0.23 kcal/mol.
With AGGGACACGTGGCGGA the “relative binding free energy” value was -0.15 kcal/mol.
In the case of AGATACACGTGGGTTG, the “relative binding free energy” value is reported as -0.15 kcal/mol.
In the case of ATGGTCACGTGTGCTC, the “relative binding free energy” value is reported as 0.13 kcal/mol.
ATGGCCACGTGGGTAT was tested, and the “relative binding free energy” value was -0.16 kcal/mol.
AGTGGCACGTGTACAG was tested, and the “relative binding free energy” value was -0.12 kcal/mol.
In the case of GTCTGCACGTGAGGTA, the “relative binding free energy” value is reported as 0.19 kcal/mol.
In the case of AGGTACACGTGTTGTC, the “relative binding free energy” value is reported as 0.06 kcal/mol.
For TTTATCACGTGTTTTC, the “relative binding free energy” value was 0.31 kcal/mol.
In the case of TAGGGCACGTGCGGTC, the “relative binding free energy” value is reported as -0.23 kcal/mol.
AAGGGCACGTGAGGTC was tested, and the “relative binding free energy” value was 0.17 kcal/mol.
With GGGAGCACGTGGTAGG the “relative binding free energy” value was -0.18 kcal/mol.
For TGGGGCACGTGTTTTG, the “relative binding free energy” value was -0.03 kcal/mol.
With GGATTCACGTGTTTTT the “relative binding free energy” value was 0.27 kcal/mol.
For CTAGGCACGTGTTAAG, the “relative binding free energy” value was -0.05 kcal/mol.
For AGGGCCACGTGGGCGA, the “relative binding free energy” value was -0.32 kcal/mol.
With GGACGCACGTGTTAGG the “relative binding free energy” value was -0.07 kcal/mol.
For TTTAACACGTGGAAGT, the “relative binding free energy” value was 0.09 kcal/mol.
With CGTGGCACGTGGAAAT the “relative binding free energy” value was 0.14 kcal/mol.
For CTTTGCACGTGGTGCG, the “relative binding free energy” value was -0.07 kcal/mol.
With GGTTACACGTGAGTAG the “relative binding free energy” value was 0.34 kcal/mol.
With GTGTACACGTGTGCAG the “relative binding free energy” value was -0.02 kcal/mol.
With TCTGGCACGTGACGGA the “relative binding free energy” value was 0.11 kcal/mol.
With TGGGTCACGTGGATAC the “relative binding free energy” value was 0.08 kcal/mol.
With TGTCTCACGTGTAGGC the “relative binding free energy” value was 0.2 kcal/mol.
In the case of CTTTGCACGTGAGGAT, the “relative binding free energy” value is reported as 0.21 kcal/mol.
GTAAGCACGTGGAGAG was tested, and the “relative binding free energy” value was 0.03 kcal/mol.
TGTGTCACGTGTGACT was tested, and the “relative binding free energy” value was 0.06 kcal/mol.
CGTTGCACGTGCGTTA was tested, and the “relative binding free energy” value was -0.11 kcal/mol.
In the case of GCAGGCACGTGGAAGG, the “relative binding free energy” value is reported as -0.06 kcal/mol.
For GATGTCACGTGCTGGT, the “relative binding free energy” value was 0.13 kcal/mol.
With GGAGACACGTGGCGTT the “relative binding free energy” value was -0.02 kcal/mol.
In the case of GTGTTCACGTGAGTAG, the “relative binding free energy” value is reported as 0.38 kcal/mol.
CGTTTCACGTGGTCTT was tested, and the “relative binding free energy” value was 0.24 kcal/mol.
For TTAAACACGTGGGCTG, the “relative binding free energy” value was -0.14 kcal/mol.
For AGCTTCACGTGGTCGT, the “relative binding free energy” value was 0.16 kcal/mol.
TAGGGCACGTGCAATG was tested, and the “relative binding free energy” value was -0.1 kcal/mol.
With AGGTACACGTGAGGTT the “relative binding free energy” value was 0.34 kcal/mol.
For TAGGGCACGTGGAACG, the “relative binding free energy” value was -0.15 kcal/mol.
In the case of ATTTACACGTGTCGGA, the “relative binding free energy” value is reported as 0.07 kcal/mol.
In the case of TGCTTCACGTGATTGT, the “relative binding free energy” value is reported as 0.37 kcal/mol.
In the case of AATTTCACGTGGTGCT, the “relative binding free energy” value is reported as 0.13 kcal/mol.
TAAATCACGTGGGCGT was tested, and the “relative binding free energy” value was 0 kcal/mol.
For ATGTCCACGTGTTGGT, the “relative binding free energy” value was 0 kcal/mol.
TAGGGCACGTGTGGTA was tested, and the “relative binding free energy” value was -0.06 kcal/mol.
For TCGTTCACGTGAGAGT, the “relative binding free energy” value was 0.29 kcal/mol.
With TGTGACACGTGTCTAG the “relative binding free energy” value was -0.04 kcal/mol.
With CGGGTCACGTGTCAGG the “relative binding free energy” value was 0.07 kcal/mol.
For GGGTGCACGTGGTTGA, the “relative binding free energy” value was -0.07 kcal/mol.
GCTGGCACGTGAGTTA was tested, and the “relative binding free energy” value was 0.19 kcal/mol.
With AAGGCCACGTGGTTGG the “relative binding free energy” value was -0.33 kcal/mol.
With GTTGACACGTGCTAAG the “relative binding free energy” value was 0.11 kcal/mol.
For AGCTTCACGTGTTGAG, the “relative binding free energy” value was 0.13 kcal/mol.
With TTTTACACGTGGCAAA the “relative binding free energy” value was 0.18 kcal/mol.
GAGTGCACGTGTTTTG was tested, and the “relative binding free energy” value was 0.08 kcal/mol.
For ATGAACACGTGGATGG, the “relative binding free energy” value was -0.07 kcal/mol.
GTTTTCACGTGGTCTT was tested, and the “relative binding free energy” value was 0.25 kcal/mol.
In the case of TTGTGCACGTGGGTCG, the “relative binding free energy” value is reported as -0.14 kcal/mol.
With GGTATCACGTGTTGGC the “relative binding free energy” value was 0.22 kcal/mol.
For TGCCGCACGTGGCGTG, the “relative binding free energy” value was -0.13 kcal/mol.
For AGGCGCACGTGGATTG, the “relative binding free energy” value was -0.04 kcal/mol.
With TACTTCACGTGGGGTT the “relative binding free energy” value was 0.03 kcal/mol.
TAGGTCACGTGTTCTG was tested, and the “relative binding free energy” value was 0.06 kcal/mol.
With AGCGGCACGTGCAGGG the “relative binding free energy” value was -0.26 kcal/mol.
For AGTTTCACGTGGAGCG, the “relative binding free energy” value was 0.21 kcal/mol.
With TCGGTCACGTGTGATT the “relative binding free energy” value was 0.03 kcal/mol.
In the case of GGCGCCACGTGGCGTG, the “relative binding free energy” value is reported as -0.17 kcal/mol.
For TGGAACACGTGGGCTG, the “relative binding free energy” value was -0.18 kcal/mol.
With TGTCGCACGTGAGAAG the “relative binding free energy” value was 0.28 kcal/mol.
In the case of TGGTGCACGTGTGGTT, the “relative binding free energy” value is reported as 0.01 kcal/mol.
In the case of TTACTCACGTGGGTCG, the “relative binding free energy” value is reported as 0.21 kcal/mol.
For GGGGGCACGTGTATCT, the “relative binding free energy” value was -0.08 kcal/mol.
For CTAATCACGTGATAGG, the “relative binding free energy” value was 0.3 kcal/mol.
With GGGAGCACGTGTTGCT the “relative binding free energy” value was -0.05 kcal/mol.
For GCAATCACGTGGGCGG, the “relative binding free energy” value was 0.11 kcal/mol.
In the case of AGACTCACGTGTTTAT, the “relative binding free energy” value is reported as 0.34 kcal/mol.
For ATGGGCACGTGGGGCG, the “relative binding free energy” value was -0.3 kcal/mol.
For TTGATCACGTGTGTCT, the “relative binding free energy” value was 0.07 kcal/mol.
In the case of GTAAGCACGTGTTTAG, the “relative binding free energy” value is reported as 0.04 kcal/mol.
GGTGACACGTGAATAT was tested, and the “relative binding free energy” value was 0.32 kcal/mol.
For TTTGGCACGTGTTCGG, the “relative binding free energy” value was -0.01 kcal/mol.
CAGTGCACGTGGTGTG was tested, and the “relative binding free energy” value was 0.03 kcal/mol.
GTGATCACGTGTGAAA was tested, and the “relative binding free energy” value was 0.18 kcal/mol.
For AATCGCACGTGTGGAG, the “relative binding free energy” value was -0.03 kcal/mol.
For TATGTCACGTGGAATG, the “relative binding free energy” value was 0.09 kcal/mol.
For TGGTCCACGTGAAGTT, the “relative binding free energy” value was 0.18 kcal/mol.
TATATCACGTGGGTAT was tested, and the “relative binding free energy” value was -0.03 kcal/mol.
For AGCGCCACGTGTGGGT, the “relative binding free energy” value was -0.18 kcal/mol.
With GTTGCCACGTGGGGGG the “relative binding free energy” value was -0.27 kcal/mol.
For CTGGTCACGTGTTGGC, the “relative binding free energy” value was 0.17 kcal/mol.
With GTGCACACGTGAAAGG the “relative binding free energy” value was 0.39 kcal/mol.
In the case of CTTGACACGTGTATGG, the “relative binding free energy” value is reported as -0.02 kcal/mol.
For ATTTTCACGTGAACTT, the “relative binding free energy” value was 0.37 kcal/mol.
GGTGACACGTGGTTAT was tested, and the “relative binding free energy” value was 0.03 kcal/mol.
CGGTCCACGTGTTAGG was tested, and the “relative binding free energy” value was 0.1 kcal/mol.
In the case of GGTGGCACGTGACTTG, the “relative binding free energy” value is reported as 0.13 kcal/mol.
With AGTGACACGTGGTGCT the “relative binding free energy” value was -0.11 kcal/mol.
GCTTTCACGTGAGAGG was tested, and the “relative binding free energy” value was 0.46 kcal/mol.
GCGGGCACGTGGTGGA was tested, and the “relative binding free energy” value was -0.05 kcal/mol.
For GGCGTCACGTGGCGGC, the “relative binding free energy” value was 0.03 kcal/mol.
TTGTACACGTGCTCAG was tested, and the “relative binding free energy” value was 0.11 kcal/mol.
AGTGTCACGTGGTAAC was tested, and the “relative binding free energy” value was 0 kcal/mol.
For AATTTCACGTGTATTT, the “relative binding free energy” value was 0.23 kcal/mol.
With GATATCACGTGAGTTA the “relative binding free energy” value was 0.41 kcal/mol.
For GCTTGCACGTGTTGAT, the “relative binding free energy” value was 0.02 kcal/mol.
For GTAGACACGTGTTCTG, the “relative binding free energy” value was 0.07 kcal/mol.
AATAACACGTGGATTT was tested, and the “relative binding free energy” value was 0.06 kcal/mol.
In the case of GTGGGCACGTGATCTT, the “relative binding free energy” value is reported as 0.12 kcal/mol.
